# According to US20120252071A1 (ROCHE DIAGNOSTICS OPERATIONS, published 2012):
# Target: the molecule itself
# Test: non-reducing SDS-PAGE; disulfide-linked self-association
# Description: Samples of T7 variants were prepared according to a procedure described in Example 4. T7 RNA polymerase and variants thereof were analyzed by gel electrophoresis on polyacrylamide gels containing sodium dodecylsulphate (SDS). Gradient gels (NuPAGE, 4-12%, Bis-Tris Gel, Invitrogen) were used. Typically, protein samples (0.26 mg/ml, 18 μl) were mixed with 6 μl of NuPAGE LDS (Lithium dodecyl sulfate; LDS may also be substituted by sodium dodecyl sulfate) sample buffer, (4×, Invitrogen). After heating for 2 min at 85° C., samples (20 μl) were applied on the gel. The total amount of protein in a single lane of the gel was between 1 μg and 3 μg. Gels were run in SDS Running Buffer (1×MES, Invitrogen) at 200 V for 1 hour.
# Further, samples of wild-type T7 and T7 variants (0.2 to 0.3 mg/ml each) were incubated at 37° C. for 16 hours in 25 mM Tris/HCl, pH 7.5 (adjusted at 25° C.), 0.1 mM EDTA, 100 mM NaCl. Aliquots were removed and applied on the SDS gels under reducing conditions or under non-reducing conditions. After incubation a sample of each treated preparation was subjected to SDS polyacrylamide gel electrophoresis as described in Example 5. Results are depicted in FIG. 2 (reducing reagents absent) and FIG. 3 (10 mM DTT added).
# With reference to FIG. 2 (reducing reagents absent), and in reference to Examples 5, 6, and 7, a stained SDS polyacrylamide gel is shown. The lanes designated M contain the Mark 12 size marker (Invitrogen). No reducing agent was added prior to electrophoresis. Lane 1: wild-type T7 RNA polymerase without His-tag; Lane 2: wild-type T7 RNA polymerase including His6-tag; Lane 3: T7 variant #8 [Cys125Ser, Cys347Ser, Cys492Ser, Cys515Ser, Cys723Ser, Cys839Ser] including His 6-tag; Lane 4: T7 variant #6 [Cys723Ser] including His6-tag; Lane 5: T7 variant #3 [Cys347Ser] including His6-tag; Lane 6: T7 variant #7 [Cys839Ser] including His6-tag; Lane 7: T7 variant #2 [Cys125Ser] including His6-tag; Lane 8: T7 variant #4 [Cys492Ser] including His6-tag; Lane 9: T7 variant #5 [Cys515Ser] including His6-tag; To varying extents homodimers and higher-order homomultimers can be seen in lanes 1, 2, 5, 6, 7, 8, and 9. Lanes 3 and 4 are detectably free of homodimers and/or homomultimers.
row,Protein,binding result
1,"T7 variant #2 [Cys125Ser] including His6-tag (enzyme, also called C125S; not shown: N-terminal His6-tag with linker) MNTINIAKNDFSDIELAAIPFNTLADHYGERLAREQLALEHESYEMGEARFRKMFERQLKAGEVADNAAAKPLITTLLPKMIARINDWFEEVKAKRGKRPTAFQFLQEIKPEAVAYITIKTTLASLTSADNTTVQAVASAIGRAIEDEARFGRIRDLEAKHFKKNVEEQLNKRVGHVYKKAFMQVVEADMLSKGLLGGEAWSSWHKEDSIHVGVRCIEMLIESTGMVSLHRQNAGVVGQDSETIELAPEYAEAIATRAGALAGISPMFQPCVVPPKPWTGITGGGYWANGRRPLALVRTHSKKALMRYEDVYMPEVYKAINIAQNTAWKINKKVLAVANVITKWKHCPVEDIPAIEREELPMKPEDIDMNPEALTAWKRAAAAVYRKDKARKSRRISLEFMLEQANKFANHKAIWFPYNMDWRGRVYAVSMFNPQGNDMTKGLLTLAKGKPIGKEGYYWLKIHGANCAGVDKVPFPERIKFIEENHENIMACAKSPLENTWWAEQDSPFCFLAFCFEYAGVQHHGLSYNCSLPLAFDGSCSGIQHFSAMLRDEVGGRAVNLLPSETVQDIYGIVAKKVNEILQADAINGTDNEVVTVTDENTGEISEKVKLGTKALAGQWLAYGVTRSVTKRSVMTLAYGSKEFGFRQQVLEDTIQPAIDSGKGLMFTQPNQAAGYMAKLIWESVSVTVVAAVEAMNWLKSAAKLLAAEVKDKKTGEILRKRCAVHWVTPDGFPVWQEYKKPIQTRLNLMFLGQFRLQPTINTNKDSEIDAHKQESGIAPNFVHSQDGSHLRKTVVWAHEKYGIESFALIHDSFGTIPADAANLFKAVRETMVDTYESCDVLADFYDQFADQLHESQLDKMPALPAKGNLNLRDILESDFAFA",binds
2,"T7 variant #3 [Cys347Ser] including His6-tag (enzyme, also called C347S; not shown: N-terminal His6-tag with linker) MNTINIAKNDFSDIELAAIPFNTLADHYGERLAREQLALEHESYEMGEARFRKMFERQLKAGEVADNAAAKPLITTLLPKMIARINDWFEEVKAKRGKRPTAFQFLQEIKPEAVAYITIKTTLACLTSADNTTVQAVASAIGRAIEDEARFGRIRDLEAKHFKKNVEEQLNKRVGHVYKKAFMQVVEADMLSKGLLGGEAWSSWHKEDSIHVGVRCIEMLIESTGMVSLHRQNAGVVGQDSETIELAPEYAEAIATRAGALAGISPMFQPCVVPPKPWTGITGGGYWANGRRPLALVRTHSKKALMRYEDVYMPEVYKAINIAQNTAWKINKKVLAVANVITKWKHSPVEDIPAIEREELPMKPEDIDMNPEALTAWKRAAAAVYRKDKARKSRRISLEFMLEQANKFANHKAIWFPYNMDWRGRVYAVSMFNPQGNDMTKGLLTLAKGKPIGKEGYYWLKIHGANCAGVDKVPFPERIKFIEENHENIMACAKSPLENTWWAEQDSPFCFLAFCFEYAGVQHHGLSYNCSLPLAFDGSCSGIQHFSAMLRDEVGGRAVNLLPSETVQDIYGIVAKKVNEILQADAINGTDNEVVTVTDENTGEISEKVKLGTKALAGQWLAYGVTRSVTKRSVMTLAYGSKEFGFRQQVLEDTIQPAIDSGKGLMFTQPNQAAGYMAKLIWESVSVTVVAAVEAMNWLKSAAKLLAAEVKDKKTGEILRKRCAVHWVTPDGFPVWQEYKKPIQTRLNLMFLGQFRLQPTINTNKDSEIDAHKQESGIAPNFVHSQDGSHLRKTVVWAHEKYGIESFALIHDSFGTIPADAANLFKAVRETMVDTYESCDVLADFYDQFADQLHESQLDKMPALPAKGNLNLRDILESDFAFA",binds
3,"T7 variant #4 [Cys492Ser] including His6-tag (enzyme, also called C492S; not shown: N-terminal His6-tag with linker) MNTINIAKNDFSDIELAAIPFNTLADHYGERLAREQLALEHESYEMGEARFRKMFERQLKAGEVADNAAAKPLITTLLPKMIARINDWFEEVKAKRGKRPTAFQFLQEIKPEAVAYITIKTTLACLTSADNTTVQAVASAIGRAIEDEARFGRIRDLEAKHFKKNVEEQLNKRVGHVYKKAFMQVVEADMLSKGLLGGEAWSSWHKEDSIHVGVRCIEMLIESTGMVSLHRQNAGVVGQDSETIELAPEYAEAIATRAGALAGISPMFQPCVVPPKPWTGITGGGYWANGRRPLALVRTHSKKALMRYEDVYMPEVYKAINIAQNTAWKINKKVLAVANVITKWKHCPVEDIPAIEREELPMKPEDIDMNPEALTAWKRAAAAVYRKDKARKSRRISLEFMLEQANKFANHKAIWFPYNMDWRGRVYAVSMFNPQGNDMTKGLLTLAKGKPIGKEGYYWLKIHGANCAGVDKVPFPERIKFIEENHENIMASAKSPLENTWWAEQDSPFCFLAFCFEYAGVQHHGLSYNCSLPLAFDGSCSGIQHFSAMLRDEVGGRAVNLLPSETVQDIYGIVAKKVNEILQADAINGTDNEVVTVTDENTGEISEKVKLGTKALAGQWLAYGVTRSVTKRSVMTLAYGSKEFGFRQQVLEDTIQPAIDSGKGLMFTQPNQAAGYMAKLIWESVSVTVVAAVEAMNWLKSAAKLLAAEVKDKKTGEILRKRCAVHWVTPDGFPVWQEYKKPIQTRLNLMFLGQFRLQPTINTNKDSEIDAHKQESGIAPNFVHSQDGSHLRKTVVWAHEKYGIESFALIHDSFGTIPADAANLFKAVRETMVDTYESCDVLADFYDQFADQLHESQLDKMPALPAKGNLNLRDILESDFAFA",binds
4,"T7 variant #5 [Cys515Ser] including His6-tag (enzyme, also called C515S; not shown: N-terminal His6-tag with linker) MNTINIAKNDFSDIELAAIPFNTLADHYGERLAREQLALEHESYEMGEARFRKMFERQLKAGEVADNAAAKPLITTLLPKMIARINDWFEEVKAKRGKRPTAFQFLQEIKPEAVAYITIKTTLACLTSADNTTVQAVASAIGRAIEDEARFGRIRDLEAKHFKKNVEEQLNKRVGHVYKKAFMQVVEADMLSKGLLGGEAWSSWHKEDSIHVGVRCIEMLIESTGMVSLHRQNAGVVGQDSETIELAPEYAEAIATRAGALAGISPMFQPCVVPPKPWTGITGGGYWANGRRPLALVRTHSKKALMRYEDVYMPEVYKAINIAQNTAWKINKKVLAVANVITKWKHCPVEDIPAIEREELPMKPEDIDMNPEALTAWKRAAAAVYRKDKARKSRRISLEFMLEQANKFANHKAIWFPYNMDWRGRVYAVSMFNPQGNDMTKGLLTLAKGKPIGKEGYYWLKIHGANCAGVDKVPFPERIKFIEENHENIMACAKSPLENTWWAEQDSPFCFLAFSFEYAGVQHHGLSYNCSLPLAFDGSCSGIQHFSAMLRDEVGGRAVNLLPSETVQDIYGIVAKKVNEILQADAINGTDNEVVTVTDENTGEISEKVKLGTKALAGQWLAYGVTRSVTKRSVMTLAYGSKEFGFRQQVLEDTIQPAIDSGKGLMFTQPNQAAGYMAKLIWESVSVTVVAAVEAMNWLKSAAKLLAAEVKDKKTGEILRKRCAVHWVTPDGFPVWQEYKKPIQTRLNLMFLGQFRLQPTINTNKDSEIDAHKQESGIAPNFVHSQDGSHLRKTVVWAHEKYGIESFALIHDSFGTIPADAANLFKAVRETMVDTYESCDVLADFYDQFADQLHESQLDKMPALPAKGNLNLRDILESDFAFA",binds
5,"T7 variant #7 [Cys839Ser] including His6-tag (enzyme, also called C839S; not shown: N-terminal His6-tag with linker) MNTINIAKNDFSDIELAAIPFNTLADHYGERLAREQLALEHESYEMGEARFRKMFERQLKAGEVADNAAAKPLITTLLPKMIARINDWFEEVKAKRGKRPTAFQFLQEIKPEAVAYITIKTTLACLTSADNTTVQAVASAIGRAIEDEARFGRIRDLEAKHFKKNVEEQLNKRVGHVYKKAFMQVVEADMLSKGLLGGEAWSSWHKEDSIHVGVRCIEMLIESTGMVSLHRQNAGVVGQDSETIELAPEYAEAIATRAGALAGISPMFQPCVVPPKPWTGITGGGYWANGRRPLALVRTHSKKALMRYEDVYMPEVYKAINIAQNTAWKINKKVLAVANVITKWKHCPVEDIPAIEREELPMKPEDIDMNPEALTAWKRAAAAVYRKDKARKSRRISLEFMLEQANKFANHKAIWFPYNMDWRGRVYAVSMFNPQGNDMTKGLLTLAKGKPIGKEGYYWLKIHGANCAGVDKVPFPERIKFIEENHENIMACAKSPLENTWWAEQDSPFCFLAFCFEYAGVQHHGLSYNCSLPLAFDGSCSGIQHFSAMLRDEVGGRAVNLLPSETVQDIYGIVAKKVNEILQADAINGTDNEVVTVTDENTGEISEKVKLGTKALAGQWLAYGVTRSVTKRSVMTLAYGSKEFGFRQQVLEDTIQPAIDSGKGLMFTQPNQAAGYMAKLIWESVSVTVVAAVEAMNWLKSAAKLLAAEVKDKKTGEILRKRCAVHWVTPDGFPVWQEYKKPIQTRLNLMFLGQFRLQPTINTNKDSEIDAHKQESGIAPNFVHSQDGSHLRKTVVWAHEKYGIESFALIHDSFGTIPADAANLFKAVRETMVDTYESSDVLADFYDQFADQLHESQLDKMPALPAKGNLNLRDILESDFAFA",binds
